Source: PubChem BioAssay (NCATS)
The list shows a part of the results. Further columns of the screen follow, without active or inactive calls. For some assays here: Compounds called inactive in the main read-out are mostly missing here. Potencies come from curve fits of mixed quality, noted in brackets.

Assays:
[1] = qHTS drug screen for cell cycle checkpoint inhibitors in PARPi-resistant BRCA-mutant ovarian cancer cell lines. (AID 1963452); details: PEO1/OlaR viability, CellTiter-Glo luminescence, 96 h
In short: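 PEO1, PEO4 and PEO1/OlaR ovarian cancer cells, 600 per well, exposed 96 h at 37C to a dilution series. Viability read by CellTiter-Glo luminescence, normalized to DMSO and empty wells; activity summarized as Z-AUC.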

[2] = qHTS for identification of novel therapeutic agents for treatment of microphthalmiaassociated transcription factor (MiT) renal cell carcinoma (RCC) (AID 1963991); details: CellTiter-Glo, 48 h; for z-score: stronger effect = lower value
In short: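 Viability of three TFE3-fusion renal carcinoma lines measured by CellTiter-Glo after 48 h treatment with each of 1912 compounds at 11 concentrations. Responses scaled between DMSO (100%) and empty wells (0%) before curve fitting.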

[3] = measured here: PEO1 parental viability
[4] = TFE3-RCC UOK109 viability, measured here: UOK109 Z-AUC
[5] = TFE3-RCC viability, measured here: UOK124 Z-AUC
[6] = TFE3-RCC viability, measured here: UOK124 cell viability
[7] = TFE3-RCC viability, measured here: UOK145 Z-AUC
[8] = TFE3-RCC viability, measured here: UOK145 cell viability
Tags describe the fitted curve by direction and shape.

Row | SMILES | AC50 [1, 3] | AC50 ([1]; measured here: PEO4 viability) | z-score [2, 4] | z-score [2, 5] | AC50 [2, 6] | z-score [2, 7] | AC50 [2, 8]
1 | COc1cc(C)c(Sc2cnc(NC(=O)c3ccc(CNC(C)C(C)(C)C)cc3)s2)cc1C(=O)N1CCN(C(C)=O)CC1 (stereo unspecified) | 13.8 µM [falling, partial curve] | 6.92 µM [falling, partial curve] | -0.295 | -0.452 | 14.8 µM [falling, partial curve] | -0.966 | 13.2 µM [falling, partial curve]
2 | CCc1c2c(nc3ccc(OC(=O)N4CCC(N5CCCCC5)CC4)cc13)-c1cc3c(c(=O)n1C2)COC(=O)[C@]3(O)CC | 0.0174 µM [falling, full curve] | 0.0616 µM [falling, full curve] | -0.399 | -0.14 | 2.96 µM [falling, full curve] | -0.867 | 1.32 µM [falling, full curve]
3 | O=C(Nc1nnc(-c2ccco2)o1)c1cc(-c2ccccc2)nc2ccccc12 | 6.16 µM [falling, partial curve, poor fit] | 3.47 µM [falling, full curve, poor fit] | 0.273 | 0.214 | 16.6 µM [falling, partial curve] | 0.642 | 20.9 µM [falling, single point]
4 | C[C@@H](O[C@H]1OCCN(Cc2n[nH]c(=O)[nH]2)[C@@H]1c1ccc(F)cc1)c1cc(C(F)(F)F)cc(C(F)(F)F)c1 | 17.4 µM [falling, single point] | 15.5 µM [falling, single point] | 0.333 | -0.0415 | 23.5 µM [falling, single point] | 0.106 | 18.7 µM [falling, partial curve, poor fit]
5 | Nc1ccc(C(=O)c2cc3c(ccc4ccccc43)[nH]2)cc1 | 2.51 µM [falling, full curve] | 2.24 µM [falling, full curve] | -0.136 | 0.258 | 11.8 µM [falling, partial curve] | -0.246 | 6.62 µM [falling, full curve]
6 | CNC(=O)c1cc(Oc2ccc(NC(=O)Nc3ccc(Cl)c(C(F)(F)F)c3)c(F)c2)ccn1 | 13.8 µM [falling, partial curve] | 24.5 µM [falling, single point] | 0.0684 | -1.5 | 23.5 µM [falling, partial curve, poor fit] | -1.06 | 37.2 µM [falling, single point]
7 | COc1cc2c(cc1-c1c(C)noc1C)ncc1[nH]c(=O)n([C@H](C)c3ccccn3)c12 | 1.95 µM [falling, full curve] | 1.38 µM [falling, full curve] | -0.92 | -0.384 | 16.6 µM [falling, partial curve] | -0.495 | 18.7 µM [falling, partial curve]
8 | C=CC(=O)Nc1cc2c(Nc3ccc(F)c(Cl)c3)ncnc2cc1OCCCN1CCOCC1 | 4.9 µM [falling, partial curve] | 3.09 µM [falling, full curve] | -2.92 | -1.13 | 14.8 µM [falling, partial curve] | -0.326 | 18.7 µM [falling, partial curve]
9 | CCc1cc(-c2n[nH]c(C)c2-c2ccc3c(c2)OCCO3)c(O)cc1O | 6.92 µM [falling, partial curve] | 15.5 µM [falling, partial curve, poor fit] | 0.28 | -2.63 | 16.6 µM [falling, partial curve] | 0.0614 | 7.43 µM [falling, full curve]
10 | CNC(=O)c1nn(C)c2c1C(C)(C)Cc1cnc(Nc3ccc(N4CCN(C)CC4)cc3)nc1-2 | 0.871 µM [falling, full curve] | 2.75 µM [falling, full curve] | -1.6 | -1.18 | 5.9 µM [falling, partial curve] | -0.268 | 1.18 µM [falling, full curve]
11 | COc1cc(C(C)C)c2c(c1)S(=O)(=O)N(COc1cc(=O)n3cccc(OCCN4CCCCC4)c3n1)C2=O | 24.5 µM [falling, single point] | 15.5 µM [falling, single point] | -0.0325 | 0.374 | 33.2 µM [falling, single point] | -0.429 | 16.6 µM [falling, partial curve]
12 | Cc1ccc(S(=O)(=O)Nc2cc(Cl)ccc2C(=O)Nc2nc(-c3ccccc3)cs2)cc1 | 2.19 µM [falling, full curve] | 1.38 µM [falling, full curve] | 0.4 | 0.436 | 8.33 µM [falling, full curve] | -0.0149 | 4.69 µM [falling, full curve]
13 | COc1cc(C(=O)NC2CCN(C)CC2)ccc1Nc1ncc2c(n1)N(C1CCCC1)CCC(=O)N2C(C)C | 24.5 µM [falling, single point] | 24.5 µM [falling, single point] | -1.09 | -0.619 | 5.26 µM [falling, partial curve] | -1.08 | 11.8 µM [falling, partial curve]
14 | Cc1cc(C(=O)N2CCN(c3cccc(Cl)c3)CC2)n(-c2ccccc2)n1 | 0.977 µM [falling, full curve] | 1.1 µM [falling, full curve] | -0.185 | -0.18 | 5.26 µM [falling, partial curve] | 0.199 | 0.59 µM [falling, full curve]
15 | CC(C)(O)CC(=O)NCCn1ccc2ncnc(Nc3ccc(Oc4cccc(C(F)(F)F)c4)c(Cl)c3)c21 | 15.5 µM [falling, partial curve] | 15.5 µM [falling, partial curve] | -1.7 | -0.337 | 20.9 µM [falling, partial curve] | -0.0583 | 3.72 µM [falling, full curve]
16 | CCN1CCN(Cc2ccc(-c3cc4c(N[C@H](C)c5ccccc5)ncnc4[nH]3)cc2)CC1 | 17.4 µM [falling, single point] | 19.5 µM [falling, partial curve] | -3.32 | -0.592 | 16.6 µM [falling, partial curve] | -1.68 | 0.0833 µM [falling, partial curve, poor fit]
17 | Cc1ccccc1C(=O)c1ccc(Nc2ccc(Br)cc2N)cc1Cl | 15.5 µM [falling, partial curve] | 11 µM [falling, partial curve, poor fit] | -0.105 | 0.194 | 33.2 µM [falling, single point] | 0.717 | 18.7 µM [falling, partial curve, poor fit]
18 | CC(C)Oc1ccc(C(=O)N[C@H](CNC(=O)CN(C)C)Cc2ccc(-c3cn4cccc([C@H](C)O)c4n3)cc2)cc1Cl | 0.11 µM [falling, full curve, poor fit] | 0.0616 µM [falling, full curve, poor fit] | 0.0146 | 0.139 | 16.6 µM [falling, partial curve, poor fit] | -0.57 | 0.833 µM [falling, full curve]
19 | Cc1cc(CN2CCN(c3c(Br)cnc4nc(-c5ccc(N6CCN(C)CC6)cc5)[nH]c34)CC2)no1 | 17.4 µM [falling, single point] | 15.5 µM [falling, partial curve] | 0.338 | -1.06 | 7.43 µM [falling, full curve] | -0.834 | 9.35 µM [falling, full curve]
20 | CCOc1cc2c(c(F)c1OCC)C(=N)N(CC(=O)c1cc(N3CCOCC3)c(OC)c(C(C)(C)C)c1)C2 | 11 µM [falling, partial curve, poor fit] | 17.4 µM [falling, single point] | 0.705 | -0.737 | 14.8 µM [falling, partial curve] | -0.357 | 13.2 µM [falling, partial curve]
21 | Cn1cnc(-c2cc3nccc(Oc4ccc(NC(=S)NC(=O)Cc5ccccc5)cc4F)c3s2)c1 | 21.9 µM [falling, single point] | 13.8 µM [falling, single point] | 0.201 | 0.202 | 37.2 µM [falling, single point] | -1.38 | 13.2 µM [falling, partial curve]
22 | Cn1cnc2c(F)c(Nc3ccc(Br)cc3Cl)c(C(=O)NOCCO)cc21 | 5.49 µM [falling, full curve] | 2.19 µM [falling, partial curve] | -1.23 | -0.188 | 0.00526 µM [falling, full curve] | 0.65 | 14.8 µM [falling, partial curve, poor fit]
23 | CC(C)(C)Cn1c(N)nc2ccc(-c3[nH]c(C(C)(C)C)nc3-c3ccc(F)cc3)nc21 | 24.5 µM [falling, single point] | 17.4 µM [falling, single point] | -0.812 | -0.688 | 23.5 µM [falling, partial curve] | -0.219 | 23.5 µM [falling, partial curve]
